Experimental data published in US20240392035A1 (DENALI THERAPEUTICS, published 2024).

Target: T1, recombinant human TfR apical domain (human)
T1 construct: also called recombinant TfR apical domain; transferrin receptor protein 1
Test: SPR (Biacore), protein captured on anti-human Fab chip, human TfR apical domain injected, 1:1 Langmuir fit
Experimental: Affinities of the bispecific proteins were measured by SPR using a Biacore T200 or a Biacore 8K. Biacore™ Series S CM5 sensor chips were immobilized with monoclonal mouse anti-human IgG (Fc) antibody for HER2 affinity measurements or mouse anti-human Fab for TfR affinity measurements (human antibody or Fab capture kit from GE Healthcare). Serial 3-fold dilutions of analyte (recombinant HER2 extracellular domain or recombinant TfR apical domain) were injected at a flow rate of […]. Each sample was analyzed using a 3-minute association and a 10-minute dissociation for HER2 extracellular domain binding and a 40-second association and a 3-minute dissociation for human TfR apical domain binding. After each injection, the chip was regenerated using 3 M MgCl₂ or 50 mM glycine at pH 2.0. Binding response was corrected by subtracting the RU from a flow cell capturing an irrelevant IgG at similar density. A 1:1 Languir model of simultaneous fitting of kon and koff was used for kinetics analysis. […] The two constructs are described below.

B1: Bispecific Protein #6 (bispecific antibody, human IgG1, kappa)
heavy 1: EVQLVESGGGLVQPGGSLRLSCAASGFTFTDYTMDWVRQAPGKGLEWVADVNPNSGGSIYNQRFKGRFTLSVDRSKNTLYLQMNSLRAEDTAVYYCARNLGPSFYFDYWGQGTLVTVSSASTKGPSVF[about 250 residues cut from this listing][about 200 residues cut from this listing]
heavy 2: EVQLVESGGGLVQPGGSLRLSCAASGFTFTDYTMDWVRQAPGKGLEWVADVNPNSGGSIYNQRFKGRFTLSVDRSKNTLYLQMNSLRAEDTAVYYCARNLGPSFYFDYWGQGTLVTVSSASTKGPSVF[about 450 residues with a human IgG1 Fc cut from this listing]
light: DIQMTQSPSSLSASVGDRVTITCKASQDVSIGVAWYQQKPGKAPKLLIYSASYRYTGVPSRFSGSGSGTDFTLTISSLQPEDFATYYCQQYYIYPYTFGQGTKVEIKRTVAAPSVF[about 200 residues cut from this listing]
Question: With B1 as the binder, how does the Kd read?
Answer: 490 nM
